Values of other authors in publication PMC8236845.
Like-named read-outs stand apart in the source and are kept apart here. Numbered stars: 1 amine (or outer) side, 2 acyl side, 3 side chain; on linkers, the order of the positions; unused ones are H or OH. Bridge positions count the residues as written; N and C are the ends. Square brackets hold non-standard residues; d marks the D form. Peptide text beside a SMILES is read from it. * marks the point of attachment. pTerphenylCO(4''-OnC5H11) = CCCCCOc1ccc(-c2ccc(-c3ccc(C(=O)*)cc3)cc2)cc1; Orn(4R-OH,5R-OH) = O=C([C@H](C[C@@H](O)[C@@H](O)N[*:3])N[*:1])[*:2]; hTyr(3S-OH,4S-OH) = N[C@H](C(=O)O)[C@H](O)[C@@H](O)c1ccc(O)cc1; Pro(3S-OH,4S-Me) = C[C@H]1CN[C@H](C(=O)O)[C@H]1O; Hyp = O=C(O)[C@@H]1C[C@@H](O)CN1

Legend:
[1] = in vivo, cited from earlier work; for Elimination T 1/2: human
[2] = bovine, in vivo, cited from earlier work
[3] = rat, in vivo, iv, 10 mg/kg; cited from earlier work

For `CCCCCOc1ccc(-c2ccc(-c3ccc(C(=O)N[C@H]4C[C@@H](O)[C@@H](O)NC(=O)[C@@H]5[C@@H](O)[C@@H](C)CN5C(=O)[C@H]([C@@H](C)O)NC(=O)[C@H]([C@H](O)[C@@H](O)c5ccc(O)cc5)NC(=O)[C@@H]5C[C@@H](O)CN5C(=O)[C@H]([C@@H](C)O)NC4=O)cc3)cc2)cc1` [Anidulafungin] ({pTerphenylCO(4''-OnC5H11)}-[Orn(4R-OH,5R-OH)]T[Hyp][hTyr(3S-OH,4S-OH)]T[Pro(3S-OH,4S-Me)]; lactam 1-C), the “Elimination T 1/2” value ([1]; iv) is given as 27 h.
In the case of `CC(=O)O[C@@]12CO[C@@H]1C[C@H](O)[C@@]1(C)C(=O)[C@H](O)C3=C(C)[C@@H](OC(=O)[C@H](O)[C@@H](NC(=O)OC(C)(C)C)c4ccccc4)C[C@@](O)([C@@H](OC(=O)c4ccccc4)[C@H]21)C3(C)C` [Docetaxel], the “Elimination T 1/2” value ([1]; iv) is listed as 25.4 h.
For `CO[C@H]1C[C@H](O[C@H]2[C@H](C)O[C@@H](O[C@@H]3/C(C)=C/C[C@@H]4C[C@@H](C[C@]5(C=C[C@H](C)[C@@H](C6CCCCC6)O5)O4)OC(=O)[C@@H]4C=C(C)[C@@H](O)[C@H]5OC/C(=C\C=C\[C@@H]3C)[C@]54O)C[C@@H]2OC)O[C@@H](C)[C@@H]1O` [Doramectin], the “Elimination T 1/2” value ([2]; topical or ocular, 500 ug/kg) is given as 240 h and the “peak plasma concentration” value [2] is given as 0.014 µM.
For `C[C@]12CC[C@@H]3c4ccc(OC(=O)c5ccccc5)cc4CC[C@H]3[C@@H]1CC[C@@H]2O` [Estradiol benzoate], the “Elimination T 1/2” value ([1]; im, 5 mg) is given as 72 h.
In the case of `CC[C@@]1(O)C(=O)OCc2c1cc1n(c2=O)Cc2cc3cc(O)ccc3nc2-1` [Hydroxycamptothecin], the “Elimination T 1/2” value [3] is listed as 7.13 h.
In the case of `Cc1cn(-c2cc(NC(=O)c3ccc(C)c(Nc4nccc(-c5cccnc5)n4)c3)cc(C(F)(F)F)c2)cn1` [Nilotinib AMN-107, Nilotinib], the “Elimination T 1/2” value ([1]; po, 300 mg) is listed as 16 h.
For `CC[C@H](C)[C@@H]1NC(=O)[C@H](Cc2ccc(O)cc2)NC(=O)[C@@H](N)CSSC[C@@H](C(=O)N2CCC[C@H]2C(=O)N[C@@H](CC(C)C)C(=O)NCC(N)=O)NC(=O)[C@H](CC(N)=O)NC(=O)[C@H](CCC(N)=O)NC1=O` [Oxytocin], the “peak plasma concentration” value [1] is listed as 0.005 µM.
In the case of `COc1cc([C@@H]2c3cc4c(cc3[C@H](O)[C@H]3COC(=O)[C@@H]23)OCO4)cc(OC)c1OC` [Picropodophyllin], the “Elimination T 1/2” value ([1]; po, 520 mg) is given as 2 h.
